Data reported in publication PMC11549370, “Two distinct regulatory pathways govern Cct2-Atg8 binding in the process of solid aggrephagy” (EMBO Reports, 2024).
No constants are given. Whether binding was seen depends on the method and setting. For part of these data: In cells and extracts the contact can be indirect. Some binding calls cover weakened binding; strength is not graded here. Tags and fused reporters may be left off the sequences shown. One block for each binder: values may come before it.

The chains behind the UniProt entries cited, without tags or fusion partners.
UniProt P12612: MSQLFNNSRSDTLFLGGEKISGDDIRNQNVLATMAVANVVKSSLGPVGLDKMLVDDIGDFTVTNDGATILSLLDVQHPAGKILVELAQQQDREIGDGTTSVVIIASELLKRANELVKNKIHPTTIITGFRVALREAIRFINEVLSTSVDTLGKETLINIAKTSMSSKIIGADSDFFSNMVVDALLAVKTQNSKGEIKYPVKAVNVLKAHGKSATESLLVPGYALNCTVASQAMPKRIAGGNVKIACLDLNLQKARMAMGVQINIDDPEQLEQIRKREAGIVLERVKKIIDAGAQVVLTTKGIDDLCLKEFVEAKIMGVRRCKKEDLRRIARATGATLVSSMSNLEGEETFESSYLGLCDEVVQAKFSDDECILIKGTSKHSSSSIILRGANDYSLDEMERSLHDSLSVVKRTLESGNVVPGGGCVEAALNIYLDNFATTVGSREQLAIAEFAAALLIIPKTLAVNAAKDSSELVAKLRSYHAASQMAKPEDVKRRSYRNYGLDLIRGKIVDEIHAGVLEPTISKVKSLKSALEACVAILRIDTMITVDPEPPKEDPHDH
UniProt P39078: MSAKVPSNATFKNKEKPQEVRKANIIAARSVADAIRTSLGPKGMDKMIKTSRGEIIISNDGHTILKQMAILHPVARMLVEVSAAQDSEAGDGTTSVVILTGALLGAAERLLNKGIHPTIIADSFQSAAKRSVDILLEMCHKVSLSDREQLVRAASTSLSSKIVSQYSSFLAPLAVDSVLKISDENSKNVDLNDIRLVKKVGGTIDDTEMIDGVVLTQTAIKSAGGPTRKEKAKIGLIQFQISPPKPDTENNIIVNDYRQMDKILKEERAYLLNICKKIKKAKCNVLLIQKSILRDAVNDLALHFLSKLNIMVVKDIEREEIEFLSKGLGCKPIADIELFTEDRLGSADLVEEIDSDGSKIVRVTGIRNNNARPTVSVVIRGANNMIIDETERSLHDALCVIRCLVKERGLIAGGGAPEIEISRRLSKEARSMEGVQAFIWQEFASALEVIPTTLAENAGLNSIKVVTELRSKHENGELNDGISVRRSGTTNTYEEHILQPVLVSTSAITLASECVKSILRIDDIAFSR
UniProt P39076: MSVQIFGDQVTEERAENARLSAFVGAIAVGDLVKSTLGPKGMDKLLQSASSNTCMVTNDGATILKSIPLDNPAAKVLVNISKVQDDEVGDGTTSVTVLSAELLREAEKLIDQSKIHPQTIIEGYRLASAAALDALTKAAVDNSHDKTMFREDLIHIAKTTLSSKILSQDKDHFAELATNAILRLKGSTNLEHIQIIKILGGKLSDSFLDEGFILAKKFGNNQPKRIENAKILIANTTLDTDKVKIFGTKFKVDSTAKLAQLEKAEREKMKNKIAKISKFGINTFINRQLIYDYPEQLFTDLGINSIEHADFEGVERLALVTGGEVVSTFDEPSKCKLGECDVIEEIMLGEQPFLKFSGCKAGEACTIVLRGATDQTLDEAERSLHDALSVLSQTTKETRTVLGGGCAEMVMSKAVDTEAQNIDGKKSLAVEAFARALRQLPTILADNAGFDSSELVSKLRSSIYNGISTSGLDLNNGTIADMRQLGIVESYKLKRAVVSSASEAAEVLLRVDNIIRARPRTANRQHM

Assays:
GST-Cct1 (S. cerevisiae) = GST-Cct1 (S. cerevisiae) (UniProt P12612); assay: pull-down; in vitro GST pulldown: GST-tagged protein on GST beads, prey added in binding buffer B (1 mM EDTA, 1 mM EGTA, 150 mM NaCl, 1% Triton X-100 in 1×PBS), 3 h, 4 °C; SDS-PAGE, Coomassie staining; both purified
GST-Cct4 (S. cerevisiae) = GST-Cct4 (S. cerevisiae) (UniProt P39078); assay: as above
[1] = biological target: 3×FLAG-Cct2 (S. cerevisiae) (UniProt P39076); assay: co-IP; lysates of yeast co-expressing the tagged proteins, nutrient-rich conditions, with or without Ape1 P22L; anti-FLAG or anti-HA agarose beads, western blot; also done in atg1∆, atg2∆, atg14∆ and atg8∆ strains

binding (GST-Cct1 (S. cerevisiae)): no binding | binding (GST-Cct4 (S. cerevisiae)): no binding
B1: His-Atg8 (natural protein, S. cerevisiae, UniProt P38182 1-117, looked up)
chain: MKSTFKSEYPFEKRKAESERIADRFKNRIPVICEKAEKSDIPEIDKRKYLVPADLTVGQFVYVIRKRIMLPPEKAIFIFVNDTLPPTAALMSAIYQEHKDKDGFLYVTYSGENTFGR
notes: Atg8, S. cerevisiae; source: E. coli, purified; not shown: His, N-terminal, kept

binding [1]: binds
B2: WT HA-Atg11 (protein, UniProt Q12527 1-1178)
chain: MADADEYSTAPTQQEITPLQTTATIINAISGECITTNVDFFVSLDKFKQFIARKWKIPPDQLLILLPYGNKLKPSMFKELLINRSFTLNDFYVYDRRLFSLVSKPTPTNLLTSKDSNPMNSPNSNDLTETLEYLIKNSHISQYQGSDTIMIKPMPSPLEDADVDLSRLNYHSVTSLLTTNLGWLSALEIDVHYFKSLIPDIIAHIKRIFDGLTVCSQYLKLYCFDVESLYNSNVQFLNQLVDNGMTSKWEKCFNDTLSKLTALEGDSLQKFINIESLLENEKSVKILNHSINGKLNKIKREIDENASFRDIITVNIDRLRQMFTPNESKFELEDQMAESFEVLVSEMRTRSRNVLDKEEEEFNSQEFLKSMNVMLEKDKKESVKTLFTISQALYSQIGELIDLKKSLQKHAVAILGNIAFTQMEILGIKRLLLNECNKDLELYKKYEVEFAQVEDLPLIYGLYLIEKYRRLSWFQQILSFISNFNQDLELFKQNELRTRNKWVKNFGSIATVFCEDLLSSSDFKRLNEYHSHTSPPNEDEEDENENSIANYRQDLVKVSQAIDNYMTQIKETDVSEPIIDLLSKTLFETKRFHIIYSNFKNNNNNSSNGNSISPEGSIALKSDDVVKGYKTRIKKLESLLHEFQYSDIGHWPQGVLNTHLKPFRGSATSINKKKFLGASVLLEPANISEVNIDSVSQANNHQIQELESNVDDLLHQLQLLKEENNRKSMQISEMGKKISDLEVEKTAYRETLTNLNQELARLTNEEQSHRTEIFTLNASFKKQLNDIISQDNEKIEKLTGDYDDVSKSRERLQMDLDESNKKHEQEVNLLKADIERLGKQIVTSEKSYAETNSSSMEKGEKFETIPLAEDPGRENQISAYTQTLQDRIFDIISTNIFILENIGLLLTFDNNNNIQIRRVKGLKKGTAQSNILDESTQMLDAHDNSLIKSPVFQKLKDEYELIKSVANGSEKDTQQSIFLGNITQLYDNKLYEVAVIRRFKDIETLAKKLTKENKIKRTLLERFQREKVTLRNFQIGDLALFLPTRENVNSVGSMSSSTSSLSSSFSSVDLSTPPPLDAMSIQSSPSVIHSNVINQASISGRDKNKLMRPWAAFTAFEESTRYFLKDEKGLTKGKEWFVGRIVTLEHFVADSPSNNPFRLPKGSVWFQVTAVVVSYQGV
